Consider 93 sequences from publication PMC10726135.

The other results are listed elsewhere or left out. At the low end of the ranking the order means little. Measured with an extract: partners may take part in the binding.

The assay addresses T1, HNF4alpha8 (COS-7 nuclear extract) (UniProt P41235-5).
T1 sequence: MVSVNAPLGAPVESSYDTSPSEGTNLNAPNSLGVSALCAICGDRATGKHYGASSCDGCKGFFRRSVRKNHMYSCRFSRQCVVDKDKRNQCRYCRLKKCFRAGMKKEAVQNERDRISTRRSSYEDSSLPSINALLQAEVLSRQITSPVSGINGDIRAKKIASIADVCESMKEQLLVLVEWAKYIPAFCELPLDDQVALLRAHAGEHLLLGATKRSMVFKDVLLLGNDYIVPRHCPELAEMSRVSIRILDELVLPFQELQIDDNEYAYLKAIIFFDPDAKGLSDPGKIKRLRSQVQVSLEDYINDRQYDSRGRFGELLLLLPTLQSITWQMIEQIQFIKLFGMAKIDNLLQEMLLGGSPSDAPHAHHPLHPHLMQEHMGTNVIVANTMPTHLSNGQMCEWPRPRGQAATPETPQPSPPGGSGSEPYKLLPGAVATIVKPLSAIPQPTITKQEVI
Briefly: protein-binding microarray. The conditions noted are these: COS-7 nuclear extract on double-stranded Agilent 4x180k PBM; binding buffer, salt, pH and temperature not given; high values mean tight binding; double strand, one strand shown; sequences stand for … in …GCCTAGGGAGATTAGAGTATCGGTCGA
Take GAATCCTCTCTTGCTCAGGTGAGGCCAGTC: the binding signal (log2 normalized intensity) was -0.894.

In the case of AGAGCAGAATCTACAAGGACCAGATTCTTA, the binding signal (log2 normalized intensity) was -1.29. Under TAGGGCCACTTTGTCCTTCACTTGTAGGAG stands 0.768; under TAGTATTGAGTTTGCTCTGCTACTAACTGC, -0.294.

As for ACACAGAGATCTGATCAAAGGTCATTGGTA, the binding signal (log2 normalized intensity) was 6.68. Under TTGTCAGTGAGGAATGTGCAAACGGCCCAG stands -0.961. With GAGCTGCTGGAACAGGCTGGGACACGCCTG the figure was -1.34; with ATGTGACCTTTTGGACCACAGAGTGACCTG, 5.66; with CTGATAAATCCCGAGCCAGAGCCAAAGGGC, 0.829.

Regarding TTCTTCTGGTTCTGCAAGGCAACTGACCTT, the binding signal (log2 normalized intensity) is 4.13.

In the case of CCTGATGACAACTGAATGTGACCTTTTGGA, the binding signal (log2 normalized intensity) came out at 6.26. Under TCTGAGTAGGAAAGACTTGCTCATTGATGA stands -1.27; under AGTTTGACTCCAAAGGGCTGGAGACTGAGT, -1.24. For the sequence ATAAAGGAAGCTGGGCACAAATTGGAGAGC, the binding signal (log2 normalized intensity) is -1.37.

Regarding TGATCCAGGGCAAAGGTCATAATTTGATCC, the binding signal (log2 normalized intensity) stood at 6.94. For the sequence CCTCCCCTCCCCCCAGTTCCCTGGGTCGCC, the binding signal (log2 normalized intensity) is 4.79. With GTTAGCATAGCCTATCTGGTGCAGTCCAAG the figure was 0.263. With CTACATCAAGAGGATTACATAACCACCACT the figure was -1.29; with TGAAACTCCACTACATTAGCAGCGCCACCA, -1.35; with CTTGACCTTTGATCCAGGCTCAGTGGGCGT, 5.72. With ACTCTGAGGCTCCATCATGCCTGGCAGCCT, the binding signal (log2 normalized intensity) was -1.26. Under AGGAATGCTGAGGAGGGCCTGGGGGACAGC stands -1.29. With TGAATCAATAAGCCAGTGAACCTTTGTCCC the figure was 5.34. For the sequence TTCATCAGATTAGAAGGCAGAGAAAGATAG, the binding signal (log2 normalized intensity) was -1.26. Under TCCCTTCCCCCCTCCTCATTGAGAGTTTTA stands 3.95; under CTGCTTGATAGCCATCTGGTGGACTTTGCT, 6.09; under CAGTGACAAATGTCAGACAAACAGACTTCA, -1.35. Take GGCCAGGATTAACCACAGAAATGCCGCTAA: the binding signal (log2 normalized intensity) was -1.36. Under GAACGAATACTCAAGGGGAAGAAATCTAAG stands -1.36; under TGAGTGACCTTTCACCCGCGCCCAGCGGTT, 4.46; under CCGGGAGCGCCGAGCACGTCGAGCAGGCCC, -1.17. Under GACACACATGAGCTAGTGCTAAAGGTCATA stands 6.29. With TAACCACATTCTTTCTGCATCGCAGTCGCC, the binding signal (log2 normalized intensity) is -1.18. Under AGGCCTAACTGGCTTTGTCTGCTCAGGAAT stands -1.25; under AGGCCATCTGCTGGAGAATCCTCTCTTGCT, -1.25; under TGGGTTGGAACCCCGTTTCTCCTACCTCAT, -0.639. Under ATCTGACAGAGATAAGGAAGTTCCAACATC stands -1.3. With AAAGAGCAACTACTCTCTCTTCTGGAGGAG the figure was -1.25. For the sequence ATGAGCAAGGTGGGTTCAGAGACCCTAGAG, the binding signal (log2 normalized intensity) was -1.37. With CTAACCTTCGTCCTTGCCCCTGGCTGGGCC the figure was 1.21; with CTTATCTAGATAAGTTGGTTTACTTATGTC, 0.666; with CAGCTCTGGGCCCCTCGGCCGCTCCCTCCC, 1.82. With AAGCTTCACAAAGGGCTGAGGTTAAAGTCC the figure was 7.44. With GCAAAAATGCAGGCAATGAATAGAACAAAT, the binding signal (log2 normalized intensity) was -1.37. With TCAAAAACCCATGGGAAGCTTCACAAAGGG the figure was -1.35. As to TTCAACTGGAGGATAAAGTTCAAGTAGATA, the binding signal (log2 normalized intensity) is 2.68. On to GTGATAACGACATTCTTTGGATATGAAGGT, for which the binding signal (log2 normalized intensity) is 1.11. As to TGCTTAGCGGCCTTCCCCTTTTTCTGTAAA, the binding signal (log2 normalized intensity) came out at 1.03. Take AATTCTATGAGTAGGTACAAATTCCAAGGA: the binding signal (log2 normalized intensity) came to 2.31. Take ATGCGATACTTGACCTGCAATGAAAGTCCA: the binding signal (log2 normalized intensity) turned out to be 3.34.

Regarding CCAAATTCCTCCCACTCTGACATCCCCCTT, the binding signal (log2 normalized intensity) is 4.41. Under ATGAATGTCACACACAGACTTGGGTTCAAA stands 2.26. Under GGGAAACAGCGAGAGTCCTCTTGGTTTATG stands -0.209. With AGTCCAGGCAGGACATCAAAGAACAAGTAT the figure was -0.928; with ACTGCAGGGGGGTGGGCACCCCTGCCCCCA, 3.59.

On to GTTAGCAACCGGAAGTGGCTAGAGGTCGCG, for which the binding signal (log2 normalized intensity) came to 1.17. Take AGTCCAGGGTAGGAGCCTCTGATTTGCTGA: the binding signal (log2 normalized intensity) is -1.44. Regarding ACTCCTTTGCTTATCTGATAAGTCCATACC, the binding signal (log2 normalized intensity) worked out at 2.06. Under CAAAGGTCAACAAACGCCCCTTGGATGAAT stands 4.18; under ATAAGGCCCGGCTGATGGGACCAAAGGTGA, 3.51; under GCATAGGGAGAATGATAAGATATATGACTC, -1.26. With TGACAAGCAAACACAAACTATGACCTTTGA the figure was 9.22; with TGTACCTGGGGCAAACATCAATTTAGACCG, -0.337. With GTCCCCTGTGCTTTGGCCAAATAATAGCAT the figure was 0.763; with GAGCGCTTTGAGGCCTATGGCGAAAAAGGA, -1.17; with GGCTCTCCCCACTTACTTCCTGATAACCTG, 0.569. As for GGAAATGCCTAGGATACCTAGTAGGCACAA, the binding signal (log2 normalized intensity) is -1.33. With TTGACCTTTGGCCAAGGGCAGTGTTTGCCC the figure was 6.36; with TGACCCTATCCACATTCAGCCCACTTCCTA, 0.952. In the case of GATGCAGGTCGCCGGGAAAACCCGGAGCGG, the binding signal (log2 normalized intensity) was -1.32.

With GTTCCCTGGGTCGCCAAGCCGGAGGCTTTG, the binding signal (log2 normalized intensity) is -1.03. For CTGACTGGCCTGGGAACCCCAAGTTATCTT, the binding signal (log2 normalized intensity) stood at 0.236. With TCACCTGTAGGGATGTGGGACTTAATCCTT the figure was -0.00026; with ACACCTTTTCTAGCTGAGTTGACCTGTGTT, 4.51. As to TTGCACTGTGCTTTGTTTACTTAACCTTTG, the binding signal (log2 normalized intensity) stood at 4.5. Under ATTCAAGAAAGGGGCAAAGTTTATGTGTGA stands 3.01; under AAGAAATAAAAACAGCTGGGTTCCAAAAGG, 0.513.

As to TTGAAAGGGACTTAGAATCGAATTGTGAAA, the binding signal (log2 normalized intensity) was -1.31. Under GTCAGGGAAGGTGCCAAGCATTCTAATCAT stands -0.871; under CTCAGTGTTCCACAGCAAGTAAATTCCGGG, 0.393.

In the case of CTCTGATCTGACCCCTTCTTGACCTGCGTA, the binding signal (log2 normalized intensity) amounted to 4.12. With TTATCAGGACTTTGTGATTACATTGAGTCC the figure was 1.97; with GTGTTCCCAGGGGCTCCCACCAGGGGGAGG, -1.34.

ATTTAGAGACAATCACTTGTATCGCCTGAA: the binding signal (log2 normalized intensity) is -1.21.

Consider TGAGAGAGAAGGCAAGATTTTGTCCTGAGT, for which the binding signal (log2 normalized intensity) was found to be 0.421. Under TGTCCTTGGCCTCACAGACAGATAGCAAAA stands -1.35; under TCTTTTTGCCACTAGGGGTCACTGTCACAT, 3.39; under ACCTGTCTCTCTGCATTCCTCCTGGCCTCT, 1.44. Regarding TTACAGTGTGAATCTCCAACAAGGCAGGAG, the binding signal (log2 normalized intensity) is -0.531.

Take TGGCTGCTGCTCTCAACTTTCCCTCAGTTC: the binding signal (log2 normalized intensity) is -1.06. With TCTTCCCCTCCTTCAGGTCAAGAGGGCCTC the figure was 2.33. Under TTTCCAGCTTTGATAGTCTGCTACCATCAG stands -1.24. With TTCAAACACAGGATTGAACCTCTGGAATTC the figure was 2.42.
